Screen size: about 310,000 compounds; about 2,200 (0.71%) showed an effect of 50% or more. The effect is printed as a negative number. This is one part of the list.
target: human ether-à-go-go-related gene (hERG) potassium channel (human, UniProt Q12809); test: primary screen, population patch clamp on CHO cells stably expressing hERG
Sequence (Q12809 whole entry, looked up): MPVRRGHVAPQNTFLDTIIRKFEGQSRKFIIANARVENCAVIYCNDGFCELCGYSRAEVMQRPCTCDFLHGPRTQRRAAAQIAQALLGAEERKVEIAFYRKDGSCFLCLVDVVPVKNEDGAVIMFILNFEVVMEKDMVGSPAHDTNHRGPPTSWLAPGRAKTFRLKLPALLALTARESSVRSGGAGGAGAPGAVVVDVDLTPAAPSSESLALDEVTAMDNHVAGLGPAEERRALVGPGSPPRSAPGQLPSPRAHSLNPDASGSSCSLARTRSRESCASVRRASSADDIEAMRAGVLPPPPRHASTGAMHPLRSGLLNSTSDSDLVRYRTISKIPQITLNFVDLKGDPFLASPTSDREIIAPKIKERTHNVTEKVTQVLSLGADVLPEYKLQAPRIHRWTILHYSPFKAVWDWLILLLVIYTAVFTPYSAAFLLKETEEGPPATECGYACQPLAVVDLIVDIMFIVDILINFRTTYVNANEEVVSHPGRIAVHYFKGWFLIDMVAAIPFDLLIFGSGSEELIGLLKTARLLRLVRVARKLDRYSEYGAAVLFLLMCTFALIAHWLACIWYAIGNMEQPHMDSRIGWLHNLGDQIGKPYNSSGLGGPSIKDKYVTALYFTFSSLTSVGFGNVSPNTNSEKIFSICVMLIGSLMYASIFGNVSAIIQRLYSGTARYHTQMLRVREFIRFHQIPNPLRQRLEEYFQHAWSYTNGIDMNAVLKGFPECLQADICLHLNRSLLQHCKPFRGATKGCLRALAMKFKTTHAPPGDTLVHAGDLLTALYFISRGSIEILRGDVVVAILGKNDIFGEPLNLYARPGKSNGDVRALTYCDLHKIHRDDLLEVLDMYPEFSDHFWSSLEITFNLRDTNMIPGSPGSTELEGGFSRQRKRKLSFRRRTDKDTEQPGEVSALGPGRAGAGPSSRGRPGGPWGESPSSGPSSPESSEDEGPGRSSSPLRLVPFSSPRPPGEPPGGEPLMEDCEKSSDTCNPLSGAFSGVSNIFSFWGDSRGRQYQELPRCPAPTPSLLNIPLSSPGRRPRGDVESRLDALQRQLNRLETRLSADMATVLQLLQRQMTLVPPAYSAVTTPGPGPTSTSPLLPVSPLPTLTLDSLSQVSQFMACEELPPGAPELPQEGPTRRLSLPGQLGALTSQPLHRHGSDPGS

Point of comparison: `CCc1nn(CC(=O)NCCCN(CC)CC)c(=O)c2cc3sc(C)cc3n12`, “hERG current change (%, negative = inhibition) at 1uM” value 11.1%. Against it:
- CCOc1ccc(NC(=O)CN(C)C(=O)c2cccnc2Sc2ccccc2Cl)cc1OCC — higher, 11.8%
- Cc1cs/c(=N\N=C\c2ccccc2)n1Cc1ccco1 — higher, 14.3%
- O=C(c1ccccc1NS(=O)(=O)c1cccc([N+](=O)[O-])c1)N1CCOCC1 — lower, 0.676%
- Cc1ccc(C(=O)COC(=O)C(C)N2C(=O)C3C4C=CC(C4)C3C2=O)cc1 (stereo not drawn) — lower, 6.8%
- CCCN(CCC)CCCNS(=O)(=O)c1ccc2c(c1)oc(=O)n2C — lower, 8.77%
- O=C(COc1ccccc1F)NNC(=O)c1cccc(-n2cccc2)c1 — lower, 3.62%
- CCC(=O)c1ccc(OCC(O)CN2CCN(c3ccccn3)CC2)cc1 (stereo not drawn) — lower, 3.36%
- O=C(NC1CC2CCC(C1)N2Cc1ccccc1)c1ccccc1Br (stereo not drawn) — lower, 0.121%
- COc1ccccc1NC(=O)c1ccc(COc2ccccc2OC)cc1 — higher, 12.6%
- Cc1ccnc2c1NC(=O)c1cccnc1N2C1CC1 — lower, 8.83%
- O=C(COC(=O)c1cc([N+](=O)[O-])ccc1N1CCOCC1)NC1CCS(=O)(=O)C1 (stereo not drawn) — lower, 3.3%
- COc1cc(/C=C/c2ccc3cccc(OC)c3n2)c(OC(C)=O)c([N+](=O)[O-])c1 — lower, 4.9%
- Cc1nn(-c2ccccc2)c(Cl)c1C1C(C#N)=C(N)Oc2c1c(=O)oc1ccccc21 (stereo not drawn) — higher, 17.4%
- O=C(CSc1ncccn1)NCCC1=CCCCC1 — lower, 1.34%
- CCOC(=O)c1cc(=O)cc(C(=O)OCC)o1 — lower, 7.17%
- O=C(c1ccco1)N1CCN(C(=O)C2CCN(S(=O)(=O)c3cnc[nH]3)CC2)CC1 — higher, 13.4%
- CC1CN(S(=O)(=O)c2cccc(C(=O)Nc3ccccc3N3CCCC3)c2)CC(C)O1 (stereo not drawn) — lower, -1.77%
- COc1ccc(S(=O)(=O)Nc2cccc(-c3ccc(N4CCCCCC4)nn3)c2)cc1OC — higher, 15.7%
- COc1cccc(C2Nc3c(F)cc(Br)cc3C3C=CCC32)c1OC (stereo not drawn) — higher, 11.5%
- CCOC(=O)N=Nc1c(O)n(C)c2ccccc12 — lower, 3.96%
- COc1ccccc1CN1C[C@@H]2C[C@@H](c3ccc4nsnc4c3)N3CCC[C@@]23C1=O — lower, -3.65%
- CC(NC(=O)CCNC(=O)c1ccc(Br)cc1)c1ccc(S(N)(=O)=O)cc1 (stereo not drawn) — higher, 16.1%
- COc1cccc(C(C(=O)NC2CCCC2)N(Cc2ccccc2OC)C(=O)c2ccco2)c1 (stereo not drawn) — lower, 6.31%
- O=C(/C=C/c1ccc(Br)cc1)NC(=S)N1C[C@H]2C[C@H](C1)c1cccc(=O)n1C2 — lower, -21%
- CN(C)c1ccc(NC(=O)c2ccc(N3CCOCC3)nc2)cc1 — lower, 4.43%
- CCOC(=O)[C@@H]1[C@H]2COc3ccccc3[C@@H]2N2C(=O)N(c3cccc(Cl)c3)C(=O)[C@]12C — lower, -0.332%
- CC1=CC(C)(C)[N+](C)(C)c2ccccc21.[I-] — higher, 17.4%
- COC(=O)C1CCN(C(=O)c2cc(S(=O)(=O)N3CCCCC3)ccc2Cl)CC1 — lower, 8.73%
- O=S1(=O)NC(=NC2CCCCCC2)c2ccccc21 — lower, 3.16%
- CCOC(=O)CC(=O)c1sc2c(c1N)c(=O)[nH]c(=O)n2-c1ccc(OC)cc1 — higher, 13.8%
- Cc1ccc(S(=O)(=O)N2CCOCC2)cc1-c1n[nH]c(=S)n1-c1ccccc1 — higher, 12.4%
- CC(=O)Oc1ccc2c(c1)cc(C)n2C — higher, 13.4%
- Cc1ccc(C)c(NC(=O)COC(=O)CNC(=O)C2CCCCC2)c1 — lower, 0.643%
- Cc1cc(C(=O)CSc2nnc(C3CC3)n2C2CC2)c(C)n1C(C)C — higher, 11.6%
- Cn1c(/C=C/c2ccccc2[N+](=O)[O-])nc2ccccc2c1=O — lower, 6.82%
- Cc1c(Cl)cccc1NC(=O)CSc1sc2c(O)cc(=O)[nH]c2c1C#N — lower, 2.77%
- CCOC(=O)c1sc(NC(=S)NC(=O)c2ccccc2)nc1C — higher, 14.2%
- COCCNCC(=O)N1CCCCCC1.O=C(O)C(=O)O — lower, 1.18%
- Cc1ccc(CSc2nnc(-c3ccncc3)n2CC2CCCO2)cc1 (stereo not drawn) — lower, 10.8%
- Oc1ccc2ccccc2c1CNc1ccccn1 — higher, 15.6%
- Cn1c(O)c(C=NC2CC3CCC2(C)C3(C)C)c(=O)[nH]c1=O (stereo not drawn) — lower, 8.6%
- CCCC1C2C(=O)N(c3ccccc3OCC)C(=O)C2ON1c1ccccc1 (stereo not drawn) — higher, 13.6%
- COc1cc(OC)cc(C(C(=O)NC2CCCCC2)N(C(=O)c2ccno2)c2ccccc2)c1 (stereo not drawn) — higher, 12.8%
- CC(C)(C)NC(=O)CN(C(=O)C(=O)Nc1ccc2c(c1)OCCO2)C1CCCC1 — lower, 9.58%
- CCn1c(SCC(=O)Nc2ccc(C(C)=O)cc2)nc2nc3c(cc2c1=O)COC(C)(C)C3 — higher, 14.1%
- Cc1ccc(C)c(S(=O)(=O)N2CCCCC2CCNC(=O)C(=O)NCc2ccco2)c1 (stereo not drawn) — lower, 1.99%
- C/C(=N\NC(=O)c1nnn(-c2nonc2N)c1CN(C)c1ccccc1)c1cccc(O)c1 — higher, 18.1%
- O=C(COC(=O)c1ccc(Cl)c([N+](=O)[O-])c1)Nc1ccccc1OC(F)F — lower, 5.85%
- COc1ccc(OC)c(C2c3[nH]c4ccccc4c3C[C@H]3C(=O)N(CCCOC(C)C)CC(=O)N23)c1 (stereo partly drawn) — lower, -1.74%
- CCOC(=O)c1cc(C(C)C)sc1NC(=O)COC(=O)c1nccnc1N — lower, -7.12%
- COc1ccc(CCNC(=O)CCN2C(=O)COc3ccc(C)cc32)cc1OC — lower, 0.774%
- COCCN(C(=O)c1csnn1)C(C(=O)NC1CCCCC1)c1ccccc1 (stereo not drawn) — lower, 1.22%
- CCOC(=O)c1csc(NC(=O)c2ccccc2)n1 — lower, 0.697%
- O=C(c1ccc(Cl)c(S(=O)(=O)N2CCCCCC2)c1)N1CCOCC1 — higher, 12.7%
- CC1=C(C/C(C)=C/c2ccccc2)/C(=C/CO)[C@H](O)[C@](C)(O)C12CC2 — higher, 16.9%
- Cc1ccc(C)c(N2CCN(S(=O)(=O)c3ccc4c(c3)OCCO4)CC2)c1 — higher, 12.4%
- Cc1ccc(NC(=O)Cn2c(=O)c(C)nc3ccccc32)cc1 — lower, 2.75%
- COc1ccc(NC2=CC(c3ccc(OC)cc3)N(c3ccc(OC)cc3)C2=O)cc1 (stereo not drawn) — lower, 9.17%
- CNc1nc2c(C)cccn2c(=O)c1C=Nc1ccc(OC)cc1 — lower, 9.48%
- O=S(=O)(Nc1nc2ccccc2nc1NCC1CCCO1)c1ccccc1 (stereo not drawn) — higher, 11.7%
- Cc1ccc(C(=O)COC(=O)CCC(=O)Nc2cc(Cl)ccc2Cl)cc1[N+](=O)[O-] — lower, 6.55%
- O=C(c1ccco1)N1CCN(C(=O)N2CCCCC2)CC1 — higher, 14.7%
- COc1ccc(NC(=O)CSc2ccc3nnc(CCNC(=O)c4ccccc4)n3n2)cc1OC — lower, 10.8%
- Cc1ccc(C(=O)NNC(=O)c2cc3cc4ccccc4nc3s2)cc1 — lower, 4.48%
- Cc1nnc(SCc2ccccc2Cl)n1CC1CCCO1 (stereo not drawn) — lower, -2.69%
- O=C(CN(Cc1ccc2c(c1)OCO2)C(=O)CNS(=O)(=O)c1ccccc1)NCc1ccco1 — lower, 0.375%
- CC(C)(C(=O)Nc1nccs1)c1ccccc1 — lower, 0.971%
- CCC(CC)Nc1ccc(C(CC(N)=O)NC(=O)c2ccccc2)cc1[N+](=O)[O-] (stereo not drawn) — lower, 8.95%
- Cc1ccc([N+](=O)[O-])cc1NC(=O)CSc1n[nH]c(-c2cccnc2)n1 — lower, 7.75%
- COc1cc(/C=C(\C#N)C(=O)NCC2CCCO2)ccc1OC(=O)c1ccco1 (stereo not drawn) — higher, 13.1%
- CC(=O)c1ccc(N2CCN(C(=O)C3CCCN3S(=O)(=O)c3cccc4nsnc34)CC2)cc1 (stereo not drawn) — higher, 14.6%
- Oc1c(Br)cc(Br)cc1/C=N/c1nc2c(s1)CCCC2 — lower, 0.415%
- O=C1OC2(c3ccccc31)c1cc(I)c(O)c(I)c1Oc1c2cc(I)c(O)c1I — lower, 8.02%
- CCCCN1C(=O)C(=O)N(CC(=O)NC2CCCc3ccccc32)C1=O (stereo not drawn) — lower, 8.35%
- COC(=O)C1=C(c2c(C)noc2C)C[C@@H]2CC[C@H]1N2C(=O)N1CCCCC1 — higher, 11.3%
- COc1ccc(-n2c(C)c(C)c3c(NCCCN(C)C)ncnc32)cc1 — lower, -7.76%
- Cc1cc(S(=O)(=O)NCc2cccnc2)ccc1F — lower, 2.2%
- CCCCn1c(CN2CCN(c3cccc(Cl)c3)CC2)nc2c1c(=O)[nH]c(=O)n2C — lower, 4.1%
- O=C(NC(c1ccc(Cl)cc1)c1c(O)ccc2ccccc12)c1ccccc1 (stereo not drawn) — lower, 5.06%
- Cc1cccc(C(=O)NCC(=O)N2CC=C(c3ccccc3)CC2)c1 — lower, -1.82%
- CC(C)N1CCc2c(sc(NC(=O)C3CCCCC3)c2C(N)=O)C1.Cl — lower, -5.83%
- O=[N+]([O-])c1c(Nc2ccccc2O)cc(Cl)c2nonc12 — lower, 10.3%
- COc1ccc(N(CC(=O)NC2CCCC2)S(=O)(=O)c2ccc(NC(C)=O)cc2)cc1 — lower, 6.69%

— paper PMC4336329 (PLoS ONE, 2015)
